Data as given in paper PMC4336329 (PLoS ONE, 2015).
Among all 310,000 compounds or so, about 14,000 (4.5%) showed an effect of 50% or more. The effect is printed as a negative number. Some of the results follow.

These compounds were tested against human ether-à-go-go-related gene (hERG) potassium channel (human, UniProt Q12809) (assay: primary screen, population patch clamp on CHO cells stably expressing hERG).
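Also: peak tail current of the secondary pulse compared with the same well before compound.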

Chain of human ether-à-go-go-related gene (hERG) potassium channel (Q12809 whole entry, looked up): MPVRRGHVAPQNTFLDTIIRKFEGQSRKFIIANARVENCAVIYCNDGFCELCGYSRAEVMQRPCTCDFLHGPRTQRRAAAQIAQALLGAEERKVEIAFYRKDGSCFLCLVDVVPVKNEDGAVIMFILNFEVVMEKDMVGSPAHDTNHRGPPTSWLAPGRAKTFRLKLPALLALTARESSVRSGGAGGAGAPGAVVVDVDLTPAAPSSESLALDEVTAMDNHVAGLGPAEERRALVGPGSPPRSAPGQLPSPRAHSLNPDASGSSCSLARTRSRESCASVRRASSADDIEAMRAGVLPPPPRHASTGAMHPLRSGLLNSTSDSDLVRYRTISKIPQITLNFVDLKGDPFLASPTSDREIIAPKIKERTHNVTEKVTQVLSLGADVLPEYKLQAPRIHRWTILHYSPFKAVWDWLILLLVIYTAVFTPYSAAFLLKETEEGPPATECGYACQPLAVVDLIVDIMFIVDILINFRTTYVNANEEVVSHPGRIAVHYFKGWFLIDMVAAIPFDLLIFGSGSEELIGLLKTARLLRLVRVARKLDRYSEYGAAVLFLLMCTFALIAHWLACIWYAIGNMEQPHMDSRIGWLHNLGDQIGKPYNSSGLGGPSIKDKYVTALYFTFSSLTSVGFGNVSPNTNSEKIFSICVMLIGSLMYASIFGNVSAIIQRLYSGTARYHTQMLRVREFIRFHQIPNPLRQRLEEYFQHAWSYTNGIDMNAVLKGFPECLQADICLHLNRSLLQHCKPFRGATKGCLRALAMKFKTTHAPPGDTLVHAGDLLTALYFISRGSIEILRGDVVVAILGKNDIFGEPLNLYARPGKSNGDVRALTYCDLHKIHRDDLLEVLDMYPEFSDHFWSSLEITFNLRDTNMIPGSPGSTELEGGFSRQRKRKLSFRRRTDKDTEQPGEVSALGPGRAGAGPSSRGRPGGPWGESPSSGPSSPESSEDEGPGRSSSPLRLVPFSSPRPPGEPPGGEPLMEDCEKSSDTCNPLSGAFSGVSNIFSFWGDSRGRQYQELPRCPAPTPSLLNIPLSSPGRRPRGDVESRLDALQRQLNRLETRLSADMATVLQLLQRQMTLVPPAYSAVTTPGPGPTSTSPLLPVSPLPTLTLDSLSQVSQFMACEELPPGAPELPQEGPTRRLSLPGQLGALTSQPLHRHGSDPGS

| Structure (SMILES) | hERG current change (%, negative = inhibition) at 10uM |
| --- | --- |
| COc1ccc(OCCCC(=O)Nc2ncn[nH]2)cc1 | 13% |
| Cc1ccc(SCC(=O)NC(C)(C)C)cc1 | -8.22% |
| COc1ccc(CCN2CC34C=CC(O3)C(C(=O)NCc3ccccc3Cl)C4C2=O)cc1OC (stereo not drawn) | 0.83% |
| C=CCn1c(SCC(=O)NCCc2ccccc2)nnc1C1CC1 | -11.9% |
| COCCCN(C(=S)Nc1cc(Cl)cc(Cl)c1)C(C)c1ccccn1 (stereo not drawn) | -38.8% |
| Cc1cc(OC(C)C(=O)NCC2CCCO2)cc(C)c1Cl (stereo not drawn) | 8.45% |
| Cc1cnn(C(=S)NCC2CCCO2)c1 (stereo not drawn) | 5.26% |
| S=C(c1ccc(-c2ccc(Cl)cc2)o1)N1CCCCC1 | 10.1% |
| Cc1cc(C(C#N)c2cccc(Cl)c2)n2ncnc2n1 (stereo not drawn) | -0.31% |
| CNC(=O)COc1ccc(Nc2nnc(-c3ccc(C)c(S(N)(=O)=O)c3)c3ccccc23)cc1 | 15.4% |
| CC(=O)N1CCN(c2ccc(NC(=S)NC(=O)/C=C/c3ccccc3)cc2)CC1 | 10.1% |
| CN1/C(=C\C=C2C(=O)NC(=O)NC2=O)C(C)(C)c2ccccc21 | 30.9% |
| C=CCn1c(-c2cccnc2)n[nH]c1=S | 24.2% |
| Cc1nc(C)c(-c2ccc(SCc3ccccc3C)nn2)s1 | 7.77% |
| C=CCOc1ccc(/C=C/C(=O)OCC(=O)NCCc2ccccc2)cc1 | 8.61% |
| O=C(NCc1ccccc1F)C(=O)NCC1CCCN1S(=O)(=O)c1ccccc1 (stereo not drawn) | -18.8% |
| CN(CC(=O)NC1CC(C)(C)NC(C)(C)C1)S(=O)(=O)c1cc(Cl)ccc1Cl | -21.1% |
| CCCNC(=O)C1CC(=O)N(c2ccc(OCC(=O)Nc3cccc(C)c3C)cc2)C1 (stereo not drawn) | 3.29% |
| CC(=O)Nc1cc(C(=O)N2CCN(C)CC2)ccc1S(=O)(=O)c1ccc(C)cc1 | -0.915% |
| C=CCn1c(SCc2cccc(C#N)c2)nnc1-c1ccccc1O | -30.4% |
| CC(C)Oc1ccc(CNC(=O)c2ccc3nc(N4CCOCC4)sc3c2)cc1 | 11.3% |
| Cc1cc(/C(N)=N/OC(=O)Nc2ccc(Cl)cc2)no1 | -3.15% |
| CC1CN(CC(O)COCc2ccc3c(c2)OCO3)CC(C)O1.Cl (stereo not drawn) | -12.2% |

| Structure (SMILES) | hERG current change (%, negative = inhibition) at 10uM |
| --- | --- |
| CCCC/C([O-])=N\S(=O)(=O)c1ccc(N=NN(C)C)cc1.[K+] | 1.26% |
| CC(CN1CCCCC1)C(=O)NN (stereo not drawn) | 43.3% |
| CCOCN(C(=O)Cn1c(CO)nc2ccccc21)c1c(C)cccc1CC | 0.0819% |
| CCOC(=O)/C(C#N)=C(/C)c1ccc(OC)cc1 | 4.78% |
| CC(=O)NNC(=O)c1ccncc1 | 6.06% |
| COc1ccc(OCC(=O)Nc2nnc(-c3ccco3)s2)cc1 | 17.7% |
| Cn1ncc(Br)c1C(=O)Nc1ccc(Br)cn1 | 16.6% |
| Cc1ccccc1N1C(=O)CC(N2CCC(C(N)=O)CC2)C1=O (stereo not drawn) | 0.665% |
| COc1ccc(OC)c(S(=O)(=O)Nc2ccc3oc4c(c3c2)C(=O)CCC4)c1 | -9.85% |
| Cc1ccc(C(=O)CSc2nsc(C)c2C#N)cc1 | 9.47% |
| O=C(CNCc1ccccc1)Nc1ccc(Oc2ccccc2)cc1 | -18.7% |
| O=C(O)c1ccc(-c2nc3scc(-c4ccccc4)c3c(=O)[nH]2)cc1 | 1.8% |
| Cc1cc(C)cc(NC(=O)CSc2nc(=O)n(CCCN3CCOCC3)c3c2CCCC3)c1 | -55.2% |
| Cc1cc(C)cc(C(=O)NC(=S)Nc2ccc(Cc3ccncc3)cc2)c1 | 11.5% |
| CCOCCCNC(=O)c1ccc(Cn2c(=S)[nH]c3c([nH]c4ccc(OC)cc43)c2=O)cc1 | 18.9% |
| CCOc1cc2[nH]c(=S)n(Cc3ccc(C(=O)NCCCN(CC)CC)cc3)c(=O)c2cc1OCC | 3.49% |
| CC(Sc1nnc(-c2ccccc2F)n1C1CC1)C(=O)NCc1ccco1 (stereo not drawn) | -35% |
| CCOC(=O)C1CCN(/C=C2/C(=O)NC(=O)N(c3cccc(C)c3C)C2=O)CC1 | 7.79% |
| CC(=O)c1cc(CN2CCC(n3nccc3NC(=O)c3ccccc3Cl)CC2)cs1 | -56.5% |
| COc1ccc2nc(-c3ccccc3)cc(C(=O)OCC(=O)N3CCCCC3)c2c1 | 0.331% |
| Cn1nnnc1SCC(=O)NCc1ccco1 | -8.74% |
| COc1cc2c(cc1NC(=S)Nc1cccc(C)c1)oc1ccccc12 | 13.2% |
| COc1ccc(Cl)cc1NC(=O)CNCC(c1ccccc1)N(C)C.O=C(O)C(=O)O (stereo not drawn) | -73.9% |

| Structure (SMILES) | hERG current change (%, negative = inhibition) at 10uM |
| --- | --- |
| CCCNC(=O)C1Cc2cc(S(=O)(=O)N3CCCC3)ccc2N1C(C)=O (stereo not drawn) | 18.4% |
| COc1ccc(S(=O)(=O)Nc2cc(C)on2)cc1NC(C)=O | 14% |
| CC1(C)CC(=O)C2=C(C1)OC(N)=C(C#N)C2c1ccoc1 (stereo not drawn) | 5.85% |
| CC1CCN(CC(=O)Nc2ccc(Cl)cc2[N+](=O)[O-])CC1 | 7.18% |
| CN(Cc1nc2ccc(F)cc2[nH]1)C(=O)C1CCC(=O)N(C2CC2)C1 (stereo not drawn) | 2.02% |
| Nc1ccc2c(c1)C/C(=C/c1ccco1)C2=O | 6.77% |
| COc1ccc(S(=O)(=O)NCc2cccnc2)cc1C(=O)Nc1ccccc1 | -47.9% |
| COC(=O)c1ccc2nc(Nc3nc4c(F)cc(F)cc4s3)sc2c1 | 0.987% |
| CC(OC(=O)CCCN=C1NS(=O)(=O)c2ccccc21)C(=O)Nc1ccc(F)cc1Cl (stereo not drawn) | -15.3% |
| CC1(OC(=O)c2ccco2)C(=O)C=C2C=C(c3ccc(C#N)cc3)OC=C2C1=O (stereo not drawn) | -1.03% |
| CCCC(c1nnnn1CCc1ccccc1)N1CCN(C(=O)c2ccco2)CC1 (stereo not drawn) | -49.3% |
| O=C(CSc1nnc(CSc2nc3ccccc3s2)o1)NC1CCCCC1 | 6.46% |
| O=C(Nc1ccc2c(c1)Cc1ccccc1-2)c1ccccc1F | 17.6% |
| CCc1nonc1NC(=O)c1oc2ccccc2c1C | 14.3% |
| Cc1nnc(SCC(=O)Nc2nccs2)s1 | 20.4% |
| CC(C)CSc1ncnc2c1oc1nc3c(cc12)COC(C)(C)C3 | 2.55% |
| Cc1ccc(-c2noc(C3CCCN(C(=O)c4ccc(Cl)cc4)C3)n2)o1 (stereo not drawn) | -55.2% |
| COc1ccc(OC)c(N=Cc2c(O)c3ccccc3oc2=O)c1 | 12.9% |
| Cc1ccc(NC(=O)CN2C(=O)NC(C)(CCc3ccccc3)C2=O)cc1 (stereo not drawn) | -15.6% |
| COc1ccccc1N1CN(Cc2ccccc2)CNC1=S | -3.29% |
| O=S(=O)(c1ccc(Cl)cc1)N1c2ccccc2Oc2nc3ccccc3nc21 | 15.9% |
| CSc1cccc(NC(=O)CCCOc2ccccc2)c1 | 10.6% |
| Cc1cc(NC(=O)CCC(=O)N(c2ccc(F)cc2)C2(C(=O)NC3CCCCC3)CCCC2)no1 | 2.27% |

| Structure (SMILES) | hERG current change (%, negative = inhibition) at 10uM |
| --- | --- |
| O=C(/C=C/c1c(F)cccc1Cl)N1CCOCC1 | 15.6% |
| CC(=O)Nc1ccc(CC(=O)NCCC(c2ccccc2)c2ccccc2)cc1 | 13.7% |
| CC(NC(=O)Cn1cc(Br)c([N+](=O)[O-])n1)c1ccccc1 (stereo not drawn) | 11.1% |
| CC(=O)c1cccc(N(CC(=O)Nc2cc(C)cc(C)c2)S(C)(=O)=O)c1 | 13.3% |
| O=C(C1CCN(S(=O)(=O)c2ccc(-n3cnnn3)cc2)CC1)N1CCN(c2ccccc2)CC1 | -35.7% |
| CC1(C)NC(=O)N(CCOCCOc2ccc3ccccc3c2Br)C1=O | -8.87% |
| O=[N+]([O-])c1ccc2oc(C(O)c3cccc(Cl)c3)cc2c1 (stereo not drawn) | -21.4% |
| CCOc1ncccc1C(=O)Nc1ccc(-c2ccc3nnc(C)n3n2)cc1 | 19.6% |
| CCc1ccc(-c2cn3c(n2)SCC3)cc1 | 4.12% |
| COc1ccc(S(=O)(=O)Nc2cc(C(=O)NCCCN3CCOCC3)ccc2N2CCOCC2)cc1 | 25% |
| COc1nc(NS(=O)(=O)c2ccc(C)cc2)nc(C)c1Cl | 4.82% |
| Cc1sc2nc(CN3CCOCC3)nc(NCCc3ccccc3)c2c1C | -30% |
| O=C(Nc1ccccc1)N1CCN(c2ncccn2)CC1 | 8.36% |
| N/C(CC(=O)NCCOc1ccccc1)=N\O | -10.9% |
| COc1ccc(OC)c(-c2cc(C(=O)N/N=C/c3cc(OC)c(OC)cc3OC)c3ccccc3n2)c1 | 0.0881% |
| COc1cccc(C(=O)Nc2ccccc2C(=O)N2CCCC2)c1 | -2.5% |
| COc1ccc(CCNC(=O)CSc2nc3[nH]ncc3c(=O)n2-c2cccc(C(F)(F)F)c2)cc1OC | 44.3% |
| Cc1ccc(C)n1-c1ccc(C(=O)N2CCOCC2)cc1 | 19.5% |
| CCOC(=O)C1(Cc2cccc(F)c2)CCN(C(=O)C2CCC2)CC1 | -24% |
| N=c1c(-c2nc3ccccc3[nH]2)cc(C(=O)c2cccs2)nn1-c1ccccc1 | -50.2% |
| O=C1ON=C(c2ccccc2[N+](=O)[O-])/C1=C/c1cccc([N+](=O)[O-])c1O | 11.1% |
